# Experimental data taken from the supplement of paper PMC8728848.
# The other results are listed elsewhere or left out.
# Experiments:
# Test in all cases: glycan array binding signal (z-score within array); higher = stronger binding
# Conditions in all cases: glycan notation: IUPAC condensed, linker removed
# Neu5Ac(a2-8)Neu5Ac = biological target: Neu5Ac(a2-8)Neu5Ac
# Procedure, shortened: (§1)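 Columns mapping to the same glycan were averaged after glycan names were converted to IUPAC-condensed notation. The data come from 3228 arrays in the Consortium for Functional Glycomics database, limited to those with an available protein sequence. Binding is reported as a within-array Z-score averaged across arrays of one protein sequence and across linkers.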
# [1] = biological target: Neu5Ac(a2-8)Neu5Ac(a2-3)Gal(b1-3)GalNAc(b1-4)[Neu5Ac(a2-3)]Gal(b1-4)Glc
# Procedure, shortened: as §1
# [2] = biological target: Neu5Ac(a2-8)Neu5Ac(a2-3)Gal(b1-3)GalNAc(b1-4)[Neu5Ac(a2-8)Neu5Ac(a2-3)]Gal(b1-4)Glc
# Procedure, shortened: as §1
# [3] = biological target: Neu5Ac(a2-8)Neu5Ac(a2-3)Gal(b1-4)Glc
# Procedure, shortened: as §1
# [4] = biological target: Neu5Ac(a2-8)Neu5Ac(a2-3)Gal(b1-4)GlcNAc
# Procedure, shortened: as §1
# [5] = biological target: Neu5Ac(a2-8)Neu5Ac(a2-3)[Gal(b1-3)GalNAc(b1-4)]Gal(b1-4)Glc
# Procedure, shortened: as §1
# [6] = biological target: Neu5Ac(a2-8)Neu5Ac(a2-3)[GalNAc(b1-4)]Gal(b1-4)Glc
# Procedure, shortened: as §1
# [7] = biological target: Neu5Ac(a2-8)Neu5Ac(a2-8)Neu5Ac
# Procedure, shortened: as §1
# [8] = biological target: Neu5Ac(a2-8)Neu5Ac(a2-8)Neu5Ac(a2-3)Gal(b1-4)Glc
# Procedure, shortened: as §1
# [9] = biological target: Neu5Ac(a2-8)Neu5Ac(a2-8)Neu5Ac(a2-3)[Gal(b1-3)GalNAc(b1-4)]Gal(b1-4)Glc
# Procedure, shortened: as §1
# [10] = biological target: Neu5Ac(a2-8)Neu5Ac(a2-8)Neu5Ac(a2-3)[GalNAc(b1-4)]Gal(b1-4)Glc
# Procedure, shortened: as §1
# [11] = biological target: Neu5Ac(a2-8)Neu5Ac(a2-8)Neu5Ac(a2-8)Neu5Ac(a2-3)[GalNAc(b1-4)]Gal(b1-4)Glc
# Procedure, shortened: as §1
# [12] = biological target: Neu5Ac(a2-8)Neu5Gc(a2-3)Gal(b1-4)GlcNAc
# Procedure, shortened: as §1
# [13] = biological target: Neu5Ac(b2-6)Gal(b1-4)GlcNAc
# Procedure, shortened: as §1
# Neu5Ac(b2-6)GalNAc = biological target: Neu5Ac(b2-6)GalNAc
# Procedure, shortened: as §1
# [14] = biological target: Neu5Ac9Ac(a2-3)Gal(b1-3)GlcNAc
# Procedure, shortened: as §1
# [15] = biological target: Neu5Ac9Ac(a2-3)Gal(b1-4)GlcNAc
# Procedure, shortened: as §1
# [16] = biological target: Neu5Ac9Ac(a2-6)Gal(b1-4)GlcNAc
# Procedure, shortened: as §1
# [17] = biological target: Neu5Gc(a2-3)Gal(b1-3)GlcNAc
# Procedure, shortened: as §1
# [18] = biological target: Neu5Gc(a2-3)Gal(b1-3)[Fuc(a1-4)]GlcNAc
# Procedure, shortened: as §1
# Neu5Gc(a2-3)Gal(b1-4)Glc = biological target: Neu5Gc(a2-3)Gal(b1-4)Glc
# Procedure, shortened: as §1
# [19] = biological target: Neu5Gc(a2-3)Gal(b1-4)GlcNAc
# Procedure, shortened: as §1
# [20] = biological target: Neu5Gc(a2-3)Gal(b1-4)GlcNAc(b1-3)Gal(b1-4)GlcNAc(b1-2)Man(a1-3)[Neu5Gc(a2-3)Gal(b1-4)GlcNAc(b1-3)Gal(b1-4)GlcNAc(b1-2)Man(a1-6)]Man(b1-4)GlcNAc(b1-4)GlcNAc
# Procedure, shortened: as §1
# [21] = biological target: Neu5Gc(a2-3)Gal(b1-4)[Fuc(a1-3)]GlcNAc
# Procedure, shortened: as §1
# [22] = biological target: Neu5Gc(a2-6)Gal(b1-4)GlcNAc
# Procedure, shortened: as §1
# Neu5Gc(a2-6)GalNAc = biological target: Neu5Gc(a2-6)GalNAc
# Procedure, shortened: as §1
# [23] = biological target: Neu5Gc(a2-8)Neu5Ac(a2-3)Gal(b1-4)GlcNAc
# Procedure, shortened: as §1
# [24] = biological target: Neu5Gc(a2-8)Neu5Gc(a2-3)Gal(b1-4)GlcNAc
# Procedure, shortened: as §1
# [25] = biological target: Neu5Gc(a2-8)Neu5Gc(a2-3)Gal(b1-4)GlcNAc(b1-3)Gal(b1-4)GlcNAc
# Procedure, shortened: as §1
# [26] = biological target: Neu5Gc(a2-8)Neu5Gc(a2-6)Gal(b1-4)GlcNAc
# Procedure, shortened: as §1
# [27] = biological target: Neu5Gc(b2-6)Gal(b1-4)GlcNAc
# Procedure, shortened: as §1
binder,measurement,setting,value
Arath Fbox LD (Arabidopsis thaliana) (protein) EFSVWLEKASGKRCLMLSAMNLSIIWGDNPQYWQWIPIPESRFEKVAKLRDVCWFEIRGRTNTRVLSPRTRYSAYIVFKGVDKCYGFQNVAIEAAVGVVGQEPSRRLICFSEAIRRGRRNVVKPKQREDGWMEIELGEFFNDGGIMDNDEIEMSALETKQLNRKCGLIIQGIEIRPAKILAAASFLEQKLISEEDLNSAVDHHHHHH,glycan array binding signal (z-score),Neu5Ac(a2-8)Neu5Ac,-0.05
same,glycan array binding signal (z-score),[1],0.001
same,glycan array binding signal (z-score),[2],0.099
same,glycan array binding signal (z-score),[3],-0.516
same,glycan array binding signal (z-score),[4],-0.254
same,glycan array binding signal (z-score),[5],0.058
same,glycan array binding signal (z-score),[6],0.575
same,glycan array binding signal (z-score),[7],0.248
same,glycan array binding signal (z-score),[8],-0.015
same,glycan array binding signal (z-score),[9],-0.484
same,glycan array binding signal (z-score),[10],-0.272
same,glycan array binding signal (z-score),[11],0.508
same,glycan array binding signal (z-score),[12],-0.634
same,glycan array binding signal (z-score),[13],-0.521
same,glycan array binding signal (z-score),Neu5Ac(b2-6)GalNAc,-0.483
same,glycan array binding signal (z-score),[14],3.71
same,glycan array binding signal (z-score),[15],-0.498
same,glycan array binding signal (z-score),[16],-0.428
same,glycan array binding signal (z-score),[17],-0.256
same,glycan array binding signal (z-score),[18],-0.502
same,glycan array binding signal (z-score),Neu5Gc(a2-3)Gal(b1-4)Glc,0.057
same,glycan array binding signal (z-score),[19],-0.477
same,glycan array binding signal (z-score),[20],-0.554
same,glycan array binding signal (z-score),[21],-0.373
same,glycan array binding signal (z-score),[22],-0.381
same,glycan array binding signal (z-score),Neu5Gc(a2-6)GalNAc,-0.28
same,glycan array binding signal (z-score),[23],-0.05
same,glycan array binding signal (z-score),[24],-0.468
same,glycan array binding signal (z-score),[25],-0.404
same,glycan array binding signal (z-score),[26],-0.133
same,glycan array binding signal (z-score),[27],-0.261
